PMC4336329 (PLoS ONE, 2015)
Hit rate of the full screen: of about 310,000 compounds, about 2,200 (0.71%) showed an effect of 50% or more. The effect is printed as a negative number. The list shows a part of the results.

These compounds were tested against human ether-à-go-go-related gene (hERG) potassium channel (human, UniProt Q12809) (assay: primary screen, population patch clamp on CHO cells stably expressing hERG).
Chain of human ether-à-go-go-related gene (hERG) potassium channel (Q12809 whole entry, looked up): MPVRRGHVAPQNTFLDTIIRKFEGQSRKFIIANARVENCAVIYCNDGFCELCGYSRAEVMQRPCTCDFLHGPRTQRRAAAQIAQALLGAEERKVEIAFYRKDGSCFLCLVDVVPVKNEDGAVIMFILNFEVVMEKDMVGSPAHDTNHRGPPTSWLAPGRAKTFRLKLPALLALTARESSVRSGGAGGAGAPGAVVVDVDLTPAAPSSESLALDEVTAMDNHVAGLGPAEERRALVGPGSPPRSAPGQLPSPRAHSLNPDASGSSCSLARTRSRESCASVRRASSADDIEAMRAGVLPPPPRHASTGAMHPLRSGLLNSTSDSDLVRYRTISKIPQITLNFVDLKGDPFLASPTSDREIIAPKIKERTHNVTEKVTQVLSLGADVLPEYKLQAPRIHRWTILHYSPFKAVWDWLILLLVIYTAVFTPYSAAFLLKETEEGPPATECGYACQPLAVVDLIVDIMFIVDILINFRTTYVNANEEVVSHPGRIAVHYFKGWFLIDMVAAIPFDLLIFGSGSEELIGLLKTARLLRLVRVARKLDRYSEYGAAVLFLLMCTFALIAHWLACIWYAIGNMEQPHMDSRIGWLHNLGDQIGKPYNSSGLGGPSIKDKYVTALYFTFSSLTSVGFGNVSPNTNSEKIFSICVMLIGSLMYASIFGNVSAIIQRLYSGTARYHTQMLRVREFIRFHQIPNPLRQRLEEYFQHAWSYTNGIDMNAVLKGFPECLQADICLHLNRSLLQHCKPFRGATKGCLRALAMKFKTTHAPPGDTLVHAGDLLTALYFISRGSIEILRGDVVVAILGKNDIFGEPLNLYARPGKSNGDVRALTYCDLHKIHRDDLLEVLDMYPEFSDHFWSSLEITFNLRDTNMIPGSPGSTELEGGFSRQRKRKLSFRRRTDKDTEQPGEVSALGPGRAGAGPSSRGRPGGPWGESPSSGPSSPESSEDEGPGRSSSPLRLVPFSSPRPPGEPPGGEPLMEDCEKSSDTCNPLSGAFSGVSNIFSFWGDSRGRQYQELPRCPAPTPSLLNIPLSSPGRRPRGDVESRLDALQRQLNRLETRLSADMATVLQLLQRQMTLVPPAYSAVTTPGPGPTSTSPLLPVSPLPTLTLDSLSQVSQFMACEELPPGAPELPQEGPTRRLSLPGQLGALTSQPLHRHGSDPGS

Structure (SMILES)	hERG current change (%, negative = inhibition) at 1uM [%]
COC(=O)CSc1nnc(-c2ccc(NS(=O)(=O)c3ccccc3)cc2)o1	18.8
Cc1ccc(CSCC(=O)N2CCN(c3ccccc3)CC2)cc1	-15.4
COc1cc(/C(C)=N/N2CCN(c3ccccc3OC)CC2)ccc1O	0.816
COC(=O)CN(C(=S)Nc1ccc(F)cc1)C1CC(=O)N(c2ccc(OC)cc2)C1=O (stereo not shown)	7.44
CN1CCN2c3ccccc3CC3(C(=O)N(C)C(=O)N(C)C3=O)C2C1 (stereo not shown)	13.5
Cc1cc(=O)oc2c1c(C)nn2-c1nn[nH]n1	-5.46
CC(C)(CO)NS(=O)(=O)c1ccc2c(c1)C(=O)c1cc(S(=O)(=O)NC(C)(C)CO)ccc1-2	5.15
COc1cc(C(=O)NNC(=O)CNC(=O)c2ccc(Br)o2)cc(OC)c1OC	14.9
CC(OC(=O)/C=C/c1cccc(Cl)c1)C(=O)NC1CCCCC1C (stereo not shown)	12.9
COc1ccc(N2CCN(C(=O)c3ccc(Cn4c(=S)[nH]c5ccc(N6CCOCC6)cc5c4=O)cc3)CC2)cc1	0.731
Cn1cc(S(=O)(=O)N2CCCC2)cc1C(=O)NCc1ccccc1	10.4
Nc1cc(=O)n(Cc2ccccc2)c(=O)n1-c1ccc(Cl)cc1	7.86
COc1ccc(CC(=O)Oc2ccc(C)cc2Br)cc1S(=O)(=O)N1CCOCC1	20.3
O=C(Cc1ccccc1)OCn1nnc2ccccc2c1=O	11.7
CC1CN(S(=O)(=O)c2cccc(-c3csc(-c4ccccc4)n3)c2)CC(C)O1 (stereo not shown)	9.15
Cc1oc2cc3oc(=O)c(CC(=O)N[C@@H](C)C(=O)NC(Cc4ccc(Cl)cc4)C(=O)O)c(C)c3cc2c1C (stereo partly shown)	11.6
COC(CNC(=O)c1ccc2nc3ccccc3c(=O)n2c1)OC	8.84
Cc1ccc(NC2CCCN(C(=O)c3ccc4nccnc4c3)C2)cc1C (stereo not shown)	2.67
O=C(c1nn(Cc2ccccc2)c(=O)c2ccccc12)N1CCN(C/C=C/c2ccccc2)CC1	-38.3
Cc1cc(C(=O)NNC(=S)Nc2ccccc2C)cs1	12.6
COc1ccc(C)cc1NC(=O)CN1CCN(CC(=O)Nc2ccccc2F)CC1	-5.83
Cc1ccc(S(=O)(=O)N2CCN(C(=O)CC(C)n3nc(C)c(Cl)c3C)CC2)cc1 (stereo not shown)	5.03
COc1cccc(-n2c(SCC(N)=O)nnc2-c2c[nH]c3ccccc23)c1	2.62
Cn1c(C(=O)N2CCC(C(N)=O)CC2)cc2c(=O)n(C)c3ccccc3c21	13.1
CCC(CC)c1nnc(NC(=O)c2c(-c3ccccc3)noc2C)s1	8.89
Cc1nc2c(-c3ccccc3)c(C)nn2c(SCC(N)=O)c1Cc1ccccc1	12.3
COc1cc(C(=O)NCCNC(=O)c2cnccn2)cc(OC)c1OC	-7.23
CCCn1nnnc1SCC(=O)NCc1ccc2c(c1)OCO2	5.28

Structure (SMILES)	hERG current change (%, negative = inhibition) at 1uM [%]
O=C1c2cccnc2C(=O)N1CNc1ccc(Cl)cc1	24.5
Cc1ccsc1C(=O)NCCc1ccco1	12.7
COc1cc(C(=O)N2CCN(c3cccc(C)c3C)CC2)ccc1OCC(=O)N1CCOCC1	10.8
CCCCn1nc2cc(C(=O)NCc3ccc(C(F)(F)F)cc3C(F)(F)F)ccc2c1OCC	9.37
N#CCCS(=O)(=O)c1ccc(N)cc1	1.38
COc1ccc(CCNC(=O)CCOc2ccc(C(C)(C)C)cc2)cc1OC	13.8
COc1ccccc1N1CCN(C(=O)c2cc3c(=O)n(C)c4ccccc4c3n2C)CC1	5.03
Cc1ccc(S(=O)(=O)N2CCOCC2)cc1N/N=C(\C#N)c1nc2ccccc2[nH]1	10.1
COc1ccc(F)cc1S(=O)(=O)Nc1ccncc1	16.4
CCN1CCc2[nH]c3ccccc3c2C1	3.73
CSC1=NCCN1C(=O)C12CC3CC(CC(C3)C1)C2	14.7
O=C(C(=O)N1CCOCC1)c1cn(Cc2ccc(F)cc2)c2ccccc12	5.5
CCOC(=O)c1sc2nc(CC(=O)OC)nc(NCc3ccc(F)cc3)c2c1C	13.9
C=CCn1c(O)c(C(C)=Nc2ccc3c(c2)CCC3)c(=O)[nH]c1=O	7.56
COc1ccc(OCCSc2ncccn2)cc1	3.32
COC(=O)c1[nH]c2ccc(Cl)cc2c1NC(=O)CCN1CCN(C2CCCCC2)CC1	-69.5
O=C(NCc1cccnc1)c1ccc(NS(=O)(=O)c2ccc(F)cc2)cc1	9.05
Cc1c(NC(=O)/C(C#N)=C/c2ccccc2)c(=O)n(-c2ccccc2)n1C	8.78
Cc1cc(C(=O)NNC(=O)CCCOc2ccccc2)c(C)o1	10.5
CN(C)c1ccc(C(=O)C(=O)c2ccccc2)cc1	16.1
O=C1CCc2cc(S(=O)(=O)NC(C(=O)NCc3cccnc3)c3ccccc3)ccc2N1 (stereo not shown)	13
Cc1nc(NC(=O)c2ccccc2)sc1C1(C)CC(c2ccccc2F)=NO1 (stereo not shown)	11
CCN1C(=O)C(CC(=O)Nc2ccc(OC)cc2)N(Cc2ccc3c(c2)OCO3)C1=S (stereo not shown)	-0.826
Cc1ccc2[nH]c3c(c2c1)CN(C(=O)CN1CCCc2ccccc21)CC3	5.14
CC(=O)c1cc(-c2ccccc2)[nH]c1N1CCOCC1	8.39
Cc1ccccc1C(=O)NC(=S)NCc1ccccc1	7.6
O=C(Nc1ccc(F)cc1)C1(S(=O)(=O)c2ccc(Cl)cc2)CC1	-10.9
